Cell count data for 18 compounds are collected here from the supplement of paper PMC4604168 (melanoma cell lines).

This is one part of the list. Single values are uncertain, as repeats are few or missing.
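Note: cells treated in 1,536-well plates, then fixed and DAPI-stained, with nuclei counted from automated high-throughput microscope images.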

The assay deals with COLO829. The experiment in a line: cell count relative to DMSO control; melanoma cells; higher = more viable cells. Particulars: library dose: standard library concentration; 72 h; first compound 2 µM.
`C[C@@H](N)c1ccc(C(=O)Nc2ccnc3[nH]ccc23)cc1` + CC(C)C[C@H](NC(=O)[C@H](Cc1ccccc1)NC(=O)c1cnccn1)B(O)O [Bortezomib] (partner dose 0.005 µM) returned a cell count of 13.2%.
The compound `CCCCCCCCCCCCCCCCCCOP(=O)([O-])OC1CC[N+](C)(C)CC1` [Perifosine] + COc1cc2c(Oc3ccc4[nH]c(C)cc4c3F)ncnc2cc1OCCCN1CCCC1 [cediranib] (partner dose 2 µM) gave a cell count of 84.7%.
Regarding `Cn1sc(=O)n(Cc2ccccc2)c1=O` + COc1cc2c(Oc3ccc4[nH]c(C)cc4c3F)ncnc2cc1OCCCN1CCCC1 [cediranib] (partner dose 2 µM), the cell count was determined as 84.5%.
`C[C@@H](N)c1ccc(C(=O)Nc2ccnc3[nH]ccc23)cc1` + Clc1ccc(Nc2nnc(Cc3ccncc3)c3ccccc23)cc1 [vatalanib] (partner dose 10 µM) displayed a cell count of 51.8%.
In the case of `CCCCCCCCCCCCCCCCCCOP(=O)([O-])OC1CC[N+](C)(C)CC1` [Perifosine] + CC(C)(C)c1cnc(CSc2cnc(NC(=O)C3CCNCC3)s2)o1 [SNS-032] (partner dose 0.05 µM), the cell count was determined as 76%.
The compound `CCCCCCCCCCCCCCCCCCOP(=O)([O-])OC1CC[N+](C)(C)CC1` [Perifosine] + CNC(=O)c1cc(Oc2ccc(NC(=O)Nc3ccc(Cl)c(C(F)(F)F)c3)cc2)ccn1 [sorafenib] (partner dose 2 µM) had a cell count of 86.1%.
The compound `CCCCCCCCCCCCCCCCCCOP(=O)([O-])OC1CC[N+](C)(C)CC1` [Perifosine] + COc1cc(Nc2ncc(F)c(Nc3ccc4c(n3)NC(=O)C(C)(C)O4)n2)cc(OC)c1OC [Tamatinib] (partner dose 2 µM) had a cell count of 88.7%.
To `C[C@@H](N)c1ccc(C(=O)Nc2ccnc3[nH]ccc23)cc1` + C[C@@H]1CCN(C(=O)CC#N)C[C@@H]1N(C)c1ncnc2[nH]ccc12 [CP690550] (partner dose 5 µM) belongs 94.8%.
Compound `C[C@@H](N)c1ccc(C(=O)Nc2ccnc3[nH]ccc23)cc1` + O=C(O)c1ccc2c(c1)nc(Nc1cccc(Cl)c1)c1ccncc12 [CX4945] (partner dose 2 µM) registered a cell count of 60.9%.
`CCCCCCCCCCCCCCCCCCOP(=O)([O-])OC1CC[N+](C)(C)CC1` [Perifosine] + CC(C)C[C@H](NC(=O)[C@H](Cc1ccccc1)NC(=O)c1cnccn1)B(O)O [Bortezomib] (partner dose 0.005 µM) displayed a cell count of 9.49%.
With `Cn1sc(=O)n(Cc2ccccc2)c1=O` + CC(C)C[C@H](NC(=O)[C@H](Cc1ccccc1)NC(=O)c1cnccn1)B(O)O [Bortezomib] (partner dose 0.005 µM), the cell count amounted to 11.6%.
In turn, `CCCCCCCCCCCCCCCCCCOP(=O)([O-])OC1CC[N+](C)(C)CC1` [Perifosine] + O=C(/C=C/c1cccnc1)NCCCCC1CCN(C(=O)c2ccccc2)CC1 [FK866] (partner dose 0.05 µM) gave a cell count of 68.2%.
For `Cn1sc(=O)n(Cc2ccccc2)c1=O` + Cc1nc(Nc2ncc(C(=O)Nc3c(C)cccc3Cl)s2)cc(N2CCN(CCO)CC2)n1 [dasatanib] (partner dose 0.02 µM), the cell count was 52.9%.
In turn, `Cn1sc(=O)n(Cc2ccccc2)c1=O` + Cc1ccc(NC(=O)c2cccc(N(C)C)c2)cc1NC(=O)c1ccc(O)cc1 [ZM336372] (partner dose 10 µM) showed a cell count of 83.9%.
Regarding `CCCCCCCCCCCCCCCCCCOP(=O)([O-])OC1CC[N+](C)(C)CC1` [Perifosine] + CC(=O)O[C@@]12CO[C@@H]1C[C@H](O)[C@@]1(C)C(=O)[C@H](O)C3=C(C)[C@@H](OC(=O)[C@H](O)[C@@H](NC(=O)OC(C)(C)C)c4ccccc4)C[C@@](O)([C@@H](OC(=O)c4ccccc4)[C@H]21)C3(C)C [Docetaxel] (partner dose 0.0005 µM), the cell count came out at 39.6%.
For `Cn1sc(=O)n(Cc2ccccc2)c1=O` + O=C(CCCCCCC(=O)Nc1ccccc1)NO [vorinostat] (partner dose 0.4 µM) the value was 109%; for `Cn1sc(=O)n(Cc2ccccc2)c1=O` + NC1(c2ccc(-c3nc4ccn5c(=O)[nH]nc5c4cc3-c3ccccc3)cc2)CCC1 [MK2206] (partner dose 2 µM), 77%.
`C[C@@H](N)c1ccc(C(=O)Nc2ccnc3[nH]ccc23)cc1` + C[C@]1(O)C[C@@H](c2nc(-c3ccc4ccc(-c5ccccc5)nc4c3)c3c(N)nccn32)C1 [OSI906] (partner dose 2 µM) gave a cell count of 94.9%.
